Measurements reported in publication PMC11352460, “RILP Induces Cholesterol Accumulation in Lysosomes by Inhibiting Endoplasmic Reticulum–Endolysosome Interactions” (Cells, 2024).
Results are given in words; binding and its absence hold for the method and conditions named. For some assays here: In cells and extracts the contact can be indirect. Some results given as binding are weak or reduced against the parent protein; the word gives no strength. Tags and fused reporters may be left off the sequences shown. Values belong to the binder of their own block, whether it stands above or below them.

How the values were obtained:
[1] = biological target: GST-RILP (Rab7-interacting lysosomal protein) (UniProt Q96NA2); experiment: pull-down; GST-fusion protein coupled to GST-Sepharose 4B resin incubated with HEK-293T lysate containing the GFP-tagged protein, 4 °C overnight; lysis buffer 20 mM HEPES pH 7.4, 1% Triton X-100, 100 mM NaCl, 5 mM MgCl2; washes with 500, 300 and 100 mM NaCl; Western blot with GFP antibody; only the target purified
[2] = biological target: T1, GST-RILP (Rab7-interacting lysosomal protein), Q96NA2; experiment: as above; conditions: remark: other sources report otherwise
T1 chain: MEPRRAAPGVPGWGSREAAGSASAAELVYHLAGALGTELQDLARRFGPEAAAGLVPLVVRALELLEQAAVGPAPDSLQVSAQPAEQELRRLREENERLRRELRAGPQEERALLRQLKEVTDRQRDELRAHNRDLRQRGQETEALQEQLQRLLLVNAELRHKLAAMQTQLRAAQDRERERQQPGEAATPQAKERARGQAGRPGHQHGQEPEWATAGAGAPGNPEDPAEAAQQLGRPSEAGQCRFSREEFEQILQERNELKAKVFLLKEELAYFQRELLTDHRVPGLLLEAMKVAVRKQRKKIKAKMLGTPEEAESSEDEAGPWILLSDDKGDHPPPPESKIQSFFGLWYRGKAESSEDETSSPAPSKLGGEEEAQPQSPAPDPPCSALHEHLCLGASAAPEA

[3] = biological target: T2, His-ORP1L, Q9BXW6; experiment: pull-down; in vitro binding: purified prokaryotic expressed His-ORP1L or His-ORP1L(336-950aa) with increasing amounts of His-RILP, incubated with GST-VAPa(1-225aa) retained on GST beads; ORP1L bound assessed by Western blot; both purified; conditions: remark: other sources report otherwise
T2 chain: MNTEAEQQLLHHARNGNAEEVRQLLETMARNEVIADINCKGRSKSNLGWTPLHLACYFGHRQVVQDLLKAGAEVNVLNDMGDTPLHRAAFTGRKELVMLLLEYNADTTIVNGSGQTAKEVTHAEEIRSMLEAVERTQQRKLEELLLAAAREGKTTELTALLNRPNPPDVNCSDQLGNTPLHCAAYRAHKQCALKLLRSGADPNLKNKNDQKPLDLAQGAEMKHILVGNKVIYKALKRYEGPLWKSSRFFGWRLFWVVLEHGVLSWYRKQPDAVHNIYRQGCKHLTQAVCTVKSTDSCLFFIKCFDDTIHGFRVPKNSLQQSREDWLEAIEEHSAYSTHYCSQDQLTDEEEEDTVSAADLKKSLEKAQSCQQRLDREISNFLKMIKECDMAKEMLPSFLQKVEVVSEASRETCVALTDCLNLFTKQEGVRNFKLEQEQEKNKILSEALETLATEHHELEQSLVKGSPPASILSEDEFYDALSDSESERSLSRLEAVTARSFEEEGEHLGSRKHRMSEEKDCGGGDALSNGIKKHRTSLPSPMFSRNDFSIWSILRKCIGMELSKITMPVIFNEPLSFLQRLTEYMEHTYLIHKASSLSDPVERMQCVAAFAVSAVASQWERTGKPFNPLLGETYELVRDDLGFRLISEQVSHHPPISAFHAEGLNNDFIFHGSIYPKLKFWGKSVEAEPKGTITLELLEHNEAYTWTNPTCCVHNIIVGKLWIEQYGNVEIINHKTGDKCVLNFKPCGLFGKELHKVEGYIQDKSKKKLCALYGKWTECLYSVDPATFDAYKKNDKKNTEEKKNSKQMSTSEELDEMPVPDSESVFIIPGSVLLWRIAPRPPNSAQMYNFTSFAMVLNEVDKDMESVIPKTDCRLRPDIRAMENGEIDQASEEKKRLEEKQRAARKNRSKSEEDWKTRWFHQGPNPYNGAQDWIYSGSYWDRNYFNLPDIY

B2: GFP-ORP1L (OSBP-related protein 1L), Q9BXW6-1 1-950 (protein)
chain: T2 chain
- binding [2]: binds

B3: GFP-ORP7(410-842aa) (domain or fragment, UniProt Q9BZF2 410-842)
chain: LLSASSSENEGSEEEESCTSEITTSLSEEMLDLRGAERCQKGGCVPGRPMGPPRRRCLPAASGPGADVSLWNILRNNIGKDLSKVSMPVQLNEPLNTLQRLCEELEYSSLLDQASRIADPCERMVYIAAFAVSAYSSTYHRAGCKPFNPVLGETYECERPDRGFRFISEQVSHHPPISACHAESENFAFWQDMKWKNKFWGKSLEIVPVGTVNVSLPRFGDHFEWNKVTSCIHNVLSGQRWIEHYGEVLIRNTQDSSCHCKITFCKAKYWSSNVHEVQGAVLSRSGRVLHRLFGKWHEGLYRGPTPGGQCIWKPNSMPPDHERNFGFTQFALELNELTAELKRSLPSTDTRLRPDQRYLEEGNIQAAEAQKRRIEQLQRDRRKVMEENNIVHQARFFRRQTDSSGKEWWVTNNTYWRLRAEPGYGNMDGAVLW
- binding [1]: no binding

B7: GFP-ORP1L(1-468aa) (domain or fragment, UniProt Q9BXW6-1 1-468)
chain: MNTEAEQQLLHHARNGNAEEVRQLLETMARNEVIADINCKGRSKSNLGWTPLHLACYFGHRQVVQDLLKAGAEVNVLNDMGDTPLHRAAFTGRKELVMLLLEYNADTTIVNGSGQTAKEVTHAEEIRSMLEAVERTQQRKLEELLLAAAREGKTTELTALLNRPNPPDVNCSDQLGNTPLHCAAYRAHKQCALKLLRSGADPNLKNKNDQKPLDLAQGAEMKHILVGNKVIYKALKRYEGPLWKSSRFFGWRLFWVVLEHGVLSWYRKQPDAVHNIYRQGCKHLTQAVCTVKSTDSCLFFIKCFDDTIHGFRVPKNSLQQSREDWLEAIEEHSAYSTHYCSQDQLTDEEEEDTVSAADLKKSLEKAQSCQQRLDREISNFLKMIKECDMAKEMLPSFLQKVEVVSEASRETCVALTDCLNLFTKQEGVRNFKLEQEQEKNKILSEALETLATEHHELEQSLVKGSPPA
- binding [1]: no binding

B8: GFP-ORP1L(486-950aa) (domain or fragment, UniProt Q9BXW6-1 486-950)
chain: ERSLSRLEAVTARSFEEEGEHLGSRKHRMSEEKDCGGGDALSNGIKKHRTSLPSPMFSRNDFSIWSILRKCIGMELSKITMPVIFNEPLSFLQRLTEYMEHTYLIHKASSLSDPVERMQCVAAFAVSAVASQWERTGKPFNPLLGETYELVRDDLGFRLISEQVSHHPPISAFHAEGLNNDFIFHGSIYPKLKFWGKSVEAEPKGTITLELLEHNEAYTWTNPTCCVHNIIVGKLWIEQYGNVEIINHKTGDKCVLNFKPCGLFGKELHKVEGYIQDKSKKKLCALYGKWTECLYSVDPATFDAYKKNDKKNTEEKKNSKQMSTSEELDEMPVPDSESVFIIPGSVLLWRIAPRPPNSAQMYNFTSFAMVLNEVDKDMESVIPKTDCRLRPDIRAMENGEIDQASEEKKRLEEKQRAARKNRSKSEEDWKTRWFHQGPNPYNGAQDWIYSGSYWDRNYFNLPDIY
- binding [1]: no binding

Now from value to binder:

- binding [1]: no binding
B1: GFP-ORP7(1-401aa) (domain or fragment, UniProt Q9BZF2 1-401)
chain: MDFQERDPPFLPESAQSSKPSSAQQASELWEVVEEPRVRLGTEGVMPERQEGHLLKKRKWPLKGWHKRYFVLEDGILHYATTRQDITKGKLHGSIDVRLSVMSINKKAQRIDLDTEDNIYHLKIKSQDLFQSWVAQLRAHRLAHRLDMPRGSLPSTAHRKVPGAQLPTAATASALPGLGPREKVSSWLRDSDGLDRCSHELSECQGKLQELHRLLQSLESLHRIPSAPVIPTHQASVTTERPKKGKRTSRMWCTQSFAKDDTIGRVGRLHGSVPNLSRYLESRDSSGTRGLPPTDYAHLQRSFWALAQKVHSSLSSVLAALTMERDQLRDMHQGSELSRMGVSEASTGQRRLHSLSTSSDTTADSFSSLNPEEQEALYMKGRELTPQLSQTSILSLADSHT

- binding [1]: binds
B4: GFP-ORP1L(1-485aa) (domain or fragment, UniProt Q9BXW6-1 1-485)
chain: MNTEAEQQLLHHARNGNAEEVRQLLETMARNEVIADINCKGRSKSNLGWTPLHLACYFGHRQVVQDLLKAGAEVNVLNDMGDTPLHRAAFTGRKELVMLLLEYNADTTIVNGSGQTAKEVTHAEEIRSMLEAVERTQQRKLEELLLAAAREGKTTELTALLNRPNPPDVNCSDQLGNTPLHCAAYRAHKQCALKLLRSGADPNLKNKNDQKPLDLAQGAEMKHILVGNKVIYKALKRYEGPLWKSSRFFGWRLFWVVLEHGVLSWYRKQPDAVHNIYRQGCKHLTQAVCTVKSTDSCLFFIKCFDDTIHGFRVPKNSLQQSREDWLEAIEEHSAYSTHYCSQDQLTDEEEEDTVSAADLKKSLEKAQSCQQRLDREISNFLKMIKECDMAKEMLPSFLQKVEVVSEASRETCVALTDCLNLFTKQEGVRNFKLEQEQEKNKILSEALETLATEHHELEQSLVKGSPPASILSEDEFYDALSDSES

- binding [1]: binds
B5: GFP-ORP7(1-409aa) (domain or fragment, UniProt Q9BZF2 1-409)
chain: MDFQERDPPFLPESAQSSKPSSAQQASELWEVVEEPRVRLGTEGVMPERQEGHLLKKRKWPLKGWHKRYFVLEDGILHYATTRQDITKGKLHGSIDVRLSVMSINKKAQRIDLDTEDNIYHLKIKSQDLFQSWVAQLRAHRLAHRLDMPRGSLPSTAHRKVPGAQLPTAATASALPGLGPREKVSSWLRDSDGLDRCSHELSECQGKLQELHRLLQSLESLHRIPSAPVIPTHQASVTTERPKKGKRTSRMWCTQSFAKDDTIGRVGRLHGSVPNLSRYLESRDSSGTRGLPPTDYAHLQRSFWALAQKVHSSLSSVLAALTMERDQLRDMHQGSELSRMGVSEASTGQRRLHSLSTSSDTTADSFSSLNPEEQEALYMKGRELTPQLSQTSILSLADSHTEFFDACEV

- binding [3]: binds
B6: His-RILP, Q96NA2 1-401 (protein)
chain: T1 chain
